Laboratory results as given in publication PMC7679444.
No constants are given. Whether binding was seen depends on the method and setting. In cells and extracts the contact can be indirect. Some entries that bind do so weakly or less than the wild type.

By UniProt entry, the sequences of proteins in these tests, tags left out. Where a name states a change or a piece, a line headed by the entry shows the natural chain unless it says otherwise. Residues count along the entry.
UniProt Q676U5: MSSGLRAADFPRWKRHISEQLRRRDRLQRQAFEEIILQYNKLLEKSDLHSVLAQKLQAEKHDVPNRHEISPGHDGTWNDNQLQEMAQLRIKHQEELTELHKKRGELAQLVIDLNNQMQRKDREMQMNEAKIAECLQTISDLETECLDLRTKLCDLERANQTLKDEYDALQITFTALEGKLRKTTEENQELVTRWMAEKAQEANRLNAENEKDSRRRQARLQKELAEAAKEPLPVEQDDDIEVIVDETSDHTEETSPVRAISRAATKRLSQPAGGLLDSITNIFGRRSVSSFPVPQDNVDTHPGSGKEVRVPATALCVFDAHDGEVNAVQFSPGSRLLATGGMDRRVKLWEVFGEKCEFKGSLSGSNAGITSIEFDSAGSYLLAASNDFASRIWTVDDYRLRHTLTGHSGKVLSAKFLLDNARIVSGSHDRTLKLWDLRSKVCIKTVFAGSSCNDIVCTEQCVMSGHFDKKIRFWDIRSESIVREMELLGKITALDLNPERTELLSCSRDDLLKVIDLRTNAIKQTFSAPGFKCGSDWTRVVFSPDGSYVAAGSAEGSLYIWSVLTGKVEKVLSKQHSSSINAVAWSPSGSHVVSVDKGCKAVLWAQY
GST-ΔWDD (ATG16L1 1–319): residues 1-319 of Q676U5
GST-WDD (ATG16L1 320–607): residues 320-607 of Q676U5
UniProt Q08334, residues 20-325: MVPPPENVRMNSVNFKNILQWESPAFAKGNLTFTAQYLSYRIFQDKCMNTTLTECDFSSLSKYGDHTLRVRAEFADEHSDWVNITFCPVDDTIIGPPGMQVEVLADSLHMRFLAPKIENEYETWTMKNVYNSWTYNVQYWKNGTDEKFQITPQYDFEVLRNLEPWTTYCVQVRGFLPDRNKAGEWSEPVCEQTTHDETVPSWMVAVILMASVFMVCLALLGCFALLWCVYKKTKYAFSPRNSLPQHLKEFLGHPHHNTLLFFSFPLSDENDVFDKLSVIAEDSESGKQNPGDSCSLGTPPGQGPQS
UniProt Q01638, residues 19-556: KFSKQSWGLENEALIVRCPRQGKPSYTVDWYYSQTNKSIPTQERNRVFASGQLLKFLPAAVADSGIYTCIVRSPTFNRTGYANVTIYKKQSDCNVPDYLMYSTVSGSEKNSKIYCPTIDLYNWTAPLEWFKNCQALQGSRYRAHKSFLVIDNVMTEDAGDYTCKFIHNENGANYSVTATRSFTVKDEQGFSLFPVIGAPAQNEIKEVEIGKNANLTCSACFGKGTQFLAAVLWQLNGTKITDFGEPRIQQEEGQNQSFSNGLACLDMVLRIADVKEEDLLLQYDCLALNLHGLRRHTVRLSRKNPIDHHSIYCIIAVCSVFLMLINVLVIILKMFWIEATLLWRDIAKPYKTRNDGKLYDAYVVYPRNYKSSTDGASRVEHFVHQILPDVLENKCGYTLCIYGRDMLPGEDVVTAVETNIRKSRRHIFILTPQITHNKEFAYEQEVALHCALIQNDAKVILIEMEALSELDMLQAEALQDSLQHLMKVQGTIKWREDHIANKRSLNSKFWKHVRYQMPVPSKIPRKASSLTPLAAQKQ

Experiments:
[1] = molecular target: GST-ΔWDD (ATG16L1 1–319) (human) (UniProt Q676U5); experiment: co-IP; HEK-293T co-transfected with tagged receptor and GST-fused ATG16L1 fragment, lysed 36 h later (1% Igepal CA-630, diluted to 0,2%), GST precipitated with GSH-agarose beads, Western blot
[2] = molecular target: GST-WDD (ATG16L1 320–607) (human) (UniProt Q676U5); experiment: as above
[3] = molecular target: full-length ATG16L1 (human) (UniProt Q676U5); experiment: co-IP; additional co-immunoprecipitation studies performed in different conditions (Supplementary Fig. 3a, b; not shown)
[4] = molecular target: full-length ATG16L1 (human) (UniProt Q676U5); experiment: co-IP; wild-type or motif-mutated receptors with full-length ATG16L1 (Supplementary Fig. 4a, b; not shown)
[5] = molecular target: IL-10RB-Flag in engineered MEFs (human) (UniProt Q08334); experiment: co-IP; engineered Atg16l1−/− MEFs (FL or Nt ATG16L1, IL-10RA-AU, IL-10RB-Flag) untreated or treated with IL-10, with or without E64d/pepstatin (10 μg/ml each) for 30 min; anti-Flag immunoprecipitation, Western blot

| Substance | binding [1] | binding [2] | binding [3] | binding [4] | binding [5] |
| --- | --- | --- | --- | --- | --- |
| IL-10RB, wild type, tagged (from UniProt Q08334 20-325) (receptor) | no binding | binds | binds | binds |  |
| FL-ATG16L1 in restored Atg16l1−/− MEFs (from UniProt Q676U5 1-607) |  |  |  |  | binds |
| IL-33R (IL-1RL1; ST2), tagged (from UniProt Q01638 19-556) (receptor) | no binding | binds |  |  |  |
| ATG16L1 N-terminal domain (Nt, 1–299) in restored Atg16l1−/− MEFs (from UniProt Q676U5 1-299) (domain or fragment) |  |  |  |  | no binding |
